According to EPA's CvTdb concentration-time database:
This continues a long series; more values of the same kind are listed elsewhere.

Experiments:
Rat [1] = test: concentration in brain after dosing; details: 20 min; dosed: 2-Methyltetrahydrofuran; 10 mg/kg; iv; Male; F344
Rat [2] = test: concentration in brain after dosing; details: 2 min; dosed: 2-Methyltetrahydrofuran; 30 mg/kg; oral; Female; F344
Rat [3] = test: concentration in plasma after dosing; details: 2 min; dosed: 2-Methyltetrahydrofuran; 10 mg/kg; iv; Male; F344
Rat [4] = test: concentration in brain after dosing; details: 1.5 h; dosed: 2-Methyltetrahydrofuran; 10 mg/kg; iv; Male; F344
Rat [5] = test: concentration in brain after dosing; details: 2 h; dosed: 2-Methyltetrahydrofuran; 30 mg/kg; oral; Female; F344
Rat [6] = test: concentration in brain after dosing; details: 8 h; dosed: 2-Methyltetrahydrofuran; 100 mg/kg; oral; Female; Harlan Sprague Dawley
Rat [7] = test: concentration in brain after dosing; details: 0.25 h; dosed: 2-Methyltetrahydrofuran; 30 mg/kg; oral; Female; F344
Rat [8] = test: concentration in brain after dosing; details: 8 min; dosed: 2-Methyltetrahydrofuran; 10 mg/kg; oral; Male; F344
Rat [9] = test: concentration in brain after dosing; details: 4 min; dosed: 2-Methyltetrahydrofuran; 10 mg/kg; oral; Male; F344
Rat [10] = test: concentration in brain after dosing; details: 0.25 h; dosed: 2-Methyltetrahydrofuran; 30 mg/kg; oral; Male; F344
Rat [11] = test: concentration in plasma after dosing; details: 0.75 h; dosed: 2-Methyltetrahydrofuran; 400 mg/kg; oral; Female; Harlan Sprague Dawley
Rat [12] = test: concentration in brain after dosing; details: 20 min; dosed: 2-Methyltetrahydrofuran; 400 mg/kg; oral; Female; F344
Rat [13] = test: concentration in brain after dosing; details: 1.5 h; dosed: 2-Methyltetrahydrofuran; 10 mg/kg; oral; Male; F344
Rat [14] = test: concentration in plasma after dosing; details: 8 min; dosed: 2-Methyltetrahydrofuran; 10 mg/kg; oral; Male; F344
Rat [15] = test: concentration in brain after dosing; details: 0.5 h; dosed: 2-Methyltetrahydrofuran; 10 mg/kg; oral; Male; F344
Rat [16] = test: concentration in brain after dosing; details: 2 h; dosed: 2-Methyltetrahydrofuran; 30 mg/kg; oral; Male; F344
Rat [17] = test: concentration in plasma after dosing; details: 4 h; dosed: 2-Methyltetrahydrofuran; 400 mg/kg; oral; Female; Harlan Sprague Dawley
Rat [18] = test: concentration in plasma after dosing; details: 4 min; dosed: 2-Methyltetrahydrofuran; 10 mg/kg; oral; Male; F344
Rat [19] = test: concentration in plasma after dosing; details: 1.5 h; dosed: 2-Methyltetrahydrofuran; 400 mg/kg; oral; Female; Harlan Sprague Dawley
Rat [20] = test: concentration in plasma after dosing; details: dosed: Bromochloroacetic acid, 100 mg/kg, oral, Male, F344
Rat [21] = test: concentration in plasma after dosing; details: dosed: Fluorotelomer alcohol 8+2, 160 mg/kg, oral, Female, Harlan Sprague Dawley
Rat [22] = test: concentration in plasma after dosing; details: dosed: Formamide, 30 mg/kg, iv, Female, F344
Rat [23] = test: concentration in plasma after dosing; details: 5 h; dosed: Formamide; 30 mg/kg; iv; Female; F344
Rat [24] = test: concentration in plasma after dosing; details: dosed: Formamide, 300 mg/kg, oral, Female, Harlan Sprague Dawley
Rat [25] = test: concentration in plasma after dosing; details: dosed: Formamide, 36 mg/kg, oral, Male, Harlan Sprague Dawley
Rat [26] = test: concentration in plasma after dosing; details: dosed: Formamide, 300 mg/kg, oral, Female, Harlan Sprague Dawley; remark: listed apart in the source
Rat [27] = test: concentration in plasma after dosing; details: 5 h; dosed: Formamide; 30 mg/kg; iv; Female; F344; remark: listed apart in the source
Rat [28] = test: concentration in plasma after dosing; details: dosed: Formamide, 30 mg/kg, iv, Female, F344; remark: listed apart in the source
Rat [29] = test: concentration in plasma after dosing; details: dosed: Formamide, 300 mg/kg, oral, Female, Harlan Sprague Dawley; remark: listed apart in the source
Rat [30] = test: concentration in plasma after dosing; details: dosed: Formamide, 600 mg/kg, oral, Female, Harlan Sprague Dawley
Rat [31] = test: concentration in plasma after dosing; details: 2 h; dosed: Formamide; 90 mg/kg; iv; Male; Harlan Sprague Dawley
Rat [32] = test: concentration in plasma after dosing; details: dosed: Formamide, 300 mg/kg, oral, Female, Harlan Sprague Dawley; remark: listed apart in the source
Rat [33] = test: concentration in plasma after dosing; details: 20 min; dosed: Pyridine; 50 mg/kg; oral; Female; F344
Rat [34] = test: concentration in plasma after dosing; details: 2 h; dosed: Pyridine; 5 mg/kg; iv; Female; F344
Rat [35] = test: concentration in plasma after dosing; details: 2 min; dosed: Pyridine; 200 mg/kg; oral; Female; Harlan Sprague Dawley
Rat [36] = test: concentration in plasma after dosing; details: dosed: Pyridine, 5 mg/kg, oral, Female, F344
Rat [37] = test: concentration in plasma after dosing; details: 2 h; dosed: Pyridine; 10 mg/kg; iv; Male; Harlan Sprague Dawley
Rat [38] = test: concentration in plasma after dosing; details: 20 min; dosed: Pyridine; 10 mg/kg; iv; Male; Harlan Sprague Dawley
Rat [39] = test: concentration in plasma after dosing; details: 20 min; dosed: Pyridine; 10 mg/kg; oral; Male; Harlan Sprague Dawley

CC1CCCO1 (stereo not given) [2-Methyltetrahydrofuran]
Details	concentration in brain [µg/g]	concentration in plasma [µg/mL]
Rat [1]	4.58	–
Rat [2]	5.61	–
Rat [3]	–	21.9
Rat [4]	0.609	–
Rat [5]	1.89	–
Rat [6]	0.0586	–
Rat [7]	10.4	–
Rat [8]	2.22	–
Rat [9]	3.25	–
Rat [10]	16	–
Rat [11]	–	165
Rat [12]	150	–
Rat [13]	0.293	–
Rat [14]	–	3.63
Rat [15]	2.93	–
Rat [16]	2.42	–
Rat [17]	–	133
Rat [18]	–	3.95
Rat [19]	–	169

O=C(O)C(Cl)Br (stereo not given) [Bromochloroacetic acid]
Rat [20]
Details	concentration in plasma [µg/mL]
7 h	0.0989
20 min	11

OCCC(F)(F)C(F)(F)C(F)(F)C(F)(F)C(F)(F)C(F)(F)C(F)(F)C(F)(F)F [Fluorotelomer alcohol 8+2]
Rat [21]
Details	concentration in plasma [µg/mL]
0.25 h	0.269
6 h	2.06

NC=O [Formamide]
Details	concentration in plasma [µg/mL]
Rat [22], 1 h	35.3
Rat [22], 3 h	30.5
Rat [24], 10 min	135
Rat [24], 20 h	454
Rat [25], 1.5 h	50.1
Rat [25], 30 h	17.9
Rat [26], 1.5 h	242
Rat [26], 30 h	99.2
Rat [28], 1 h	41.6
Rat [28], 3 h	32
Rat [29], 0.5 h	175
Rat [29], 48 h	28.1
Rat [30], 1 h	654
Rat [30], 72 h	28.4
Rat [32], 0.5 h	163
Rat [32], 48 h	19.2

Details	concentration in plasma [µg/mL]
Rat [23]	28.8
Rat [27]	32.3
Rat [31]	155

c1ccncc1 [Pyridine]
Details	concentration in plasma [µg/mL]
Rat [33]	28.8
Rat [34]	2.97
Rat [35]	71.6
Rat [37]	0.62
Rat [38]	3.17
Rat [39]	5.9

Rat [36]
Details	concentration in plasma [µg/mL]
1 h	3.46
8 h	0.96
